# Data taken from PMC4336329 (PLoS ONE, 2015).
# In all, about 310,000 compounds went through this assay and about 2,200 (0.71%) showed an effect of 50% or more. Effects have a minus sign here. The list shows a part of the results.
# Target: human ether-à-go-go-related gene (hERG) potassium channel (human, UniProt Q12809)
# Experiment: primary screen, population patch clamp on CHO cells stably expressing hERG
# Sequence of human ether-à-go-go-related gene (hERG) potassium channel (Q12809 whole entry, looked up): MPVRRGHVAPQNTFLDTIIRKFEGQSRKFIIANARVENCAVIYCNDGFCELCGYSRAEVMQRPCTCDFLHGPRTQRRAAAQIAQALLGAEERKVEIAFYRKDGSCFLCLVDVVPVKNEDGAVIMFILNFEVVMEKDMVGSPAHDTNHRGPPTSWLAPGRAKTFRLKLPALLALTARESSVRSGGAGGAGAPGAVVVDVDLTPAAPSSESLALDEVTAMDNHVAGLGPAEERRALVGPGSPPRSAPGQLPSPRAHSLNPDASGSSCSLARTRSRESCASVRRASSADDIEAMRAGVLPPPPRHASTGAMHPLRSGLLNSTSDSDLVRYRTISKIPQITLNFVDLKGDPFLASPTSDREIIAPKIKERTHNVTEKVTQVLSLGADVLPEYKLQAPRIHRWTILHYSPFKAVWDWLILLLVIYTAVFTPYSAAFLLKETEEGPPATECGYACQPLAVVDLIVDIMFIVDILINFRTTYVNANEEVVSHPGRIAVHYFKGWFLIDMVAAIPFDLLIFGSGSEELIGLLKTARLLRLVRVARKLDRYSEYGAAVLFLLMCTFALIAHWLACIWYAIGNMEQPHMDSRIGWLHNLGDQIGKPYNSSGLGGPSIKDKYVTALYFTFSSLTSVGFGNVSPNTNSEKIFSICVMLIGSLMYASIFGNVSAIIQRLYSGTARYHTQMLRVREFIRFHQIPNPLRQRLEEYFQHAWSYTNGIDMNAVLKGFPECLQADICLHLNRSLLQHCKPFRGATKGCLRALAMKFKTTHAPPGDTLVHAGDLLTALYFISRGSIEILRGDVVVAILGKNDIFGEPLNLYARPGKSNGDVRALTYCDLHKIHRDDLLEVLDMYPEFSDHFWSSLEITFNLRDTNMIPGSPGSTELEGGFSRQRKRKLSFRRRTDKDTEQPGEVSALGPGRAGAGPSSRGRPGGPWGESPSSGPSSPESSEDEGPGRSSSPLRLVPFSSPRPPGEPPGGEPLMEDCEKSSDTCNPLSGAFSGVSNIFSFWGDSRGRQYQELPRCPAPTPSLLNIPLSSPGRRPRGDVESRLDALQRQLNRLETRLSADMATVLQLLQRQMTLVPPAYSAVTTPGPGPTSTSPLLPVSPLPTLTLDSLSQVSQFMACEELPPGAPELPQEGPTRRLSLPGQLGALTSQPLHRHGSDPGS
row,SMILES,"hERG current change (%, negative = inhibition) at 1uM [%]"
1,COc1ccc2cc(C3C(C#N)=C(N)OC(C)=C3C(C)=O)c(Cl)nc2c1 (centres unmarked),0.403
2,O=C(O)C(=O)O.O=[N+]([O-])c1ccc(OCCCCN2CCc3ccccc3C2)cc1,-81.1
3,CCOc1c(CNCCNC(=O)c2nonc2N)cccc1OC.Cl,9.48
4,CCN1CCN(C(=O)c2ccccc2N(Cc2ccccc2)S(=O)(=O)c2ccc(OC)cc2)CC1,-21
5,CCOC(=O)C1=C(COC(=O)/C=C/c2cccc(Cl)c2)NC(=O)NC1C (centres unmarked),5.95
6,CCOc1ccc(OCC)c(S(=O)(=O)NCCCN2CCOCC2)c1,9.79
7,CCOC(=O)N1CCN(C(=O)c2cc(C)c3c(C)nn(-c4ccccc4)c3n2)CC1,-5.58
8,CCN(CC)c1ccc(-n2cc3c(=O)n(C)c(=O)n(C)c3c2)cc1,8.11
9,C/C=C/C=C/C(=O)O,9.87
10,COc1ccc(-c2oc3ccc(-c4ccc5c(c4)OCO5)cc3c2C#CC2(O)CCCCC2)cc1,7.95
11,CCn1cc(CN2CCCC(C(=O)c3ccc(-c4ccccc4)c(F)c3)C2)cn1 (centres unmarked),-12.4
12,CSc1ccccc1NC(=O)CN1CCCCC1,11.5
13,NC(=O)C1CCN(c2ncnc3c(-c4ccccc4)nsc23)CC1,12.1
14,CCN(CC)c1ccc(NC(=O)CSc2nc(C3CC3)nc3ccccc23)cc1C,6.53
15,COc1cccc(C2(C)NC(=O)N(CC(=O)c3cc(C)n(C4CC4)c3C)C2=O)c1 (centres unmarked),6.98
16,Cc1cc(=O)[nH]c(SCC(=O)Nc2ccc(S(=O)(=O)N3CCOCC3)cc2)n1,1.3
17,CC(NC=O)c1nc2ccccc2n1CCc1ccccc1 (centres unmarked),11.9
18,CC(Oc1ccc(S(=O)(=O)N2CCCC2)cc1[N+](=O)[O-])C(=O)N(C)c1ccccc1 (centres unmarked),3.29
19,COC(=O)c1ccccc1NC1OC(=O)c2ccccc21 (centres unmarked),12.1
20,O=C1CC(c2ccco2)CC(O)=C1C=NCCN1CCNCC1 (centres unmarked),9.03
21,O=C1NC(c2ccc(Br)cc2)=N/C1=C/c1ccco1,7.07
22,C#CCCc1cscc1/C=[N+](\[O-])c1ccc(C(=O)OCC)cc1,17.6

row,SMILES,"hERG current change (%, negative = inhibition) at 1uM [%]"
1,Cc1ccc(N(C(=O)c2csnn2)C(C(=O)NC(C)(C)C)c2cccnc2)cc1 (centres unmarked),4.75
2,O=c1[nH]cnc2c1ncn2[C@@H]1O[C@H](CO)[C@@H](O)[C@H]1O,5.08
3,CC(=O)CS(=O)(=O)c1ccc(Oc2ccc(S(=O)(=O)CC(C)=O)cc2)cc1,13.1
4,Cc1ccc(-n2c(C)nc3c(cnn3-c3ccc(C)c(C)c3)c2=O)cc1C,16.2
5,Cc1ccccc1Cn1nnc2c1C(=O)c1ccccc1C2=O,-0.165
6,CCOc1cccc(CN(CC)CC2CCCN(CCc3cccc(OC)c3)C2)c1O (centres unmarked),-13
7,Cc1nn(CC(=O)NNC(=O)c2cccc(Br)c2)c(C)c1[N+](=O)[O-],8.74
8,CN(CCc1ccccc1)C(=O)c1cc(COc2ccc(F)cc2Cl)on1,13.5
9,O=C(Cc1ccc(Cl)cc1)Nc1ccc(C(=O)N2CCOCC2)cc1,10.8
10,COc1ccc(/C=C2/C(=O)N(c3ccccc3)N=C2C)c(OC)c1,18.1
11,O=C(N/N=C/c1cc(Br)cs1)c1ccccc1[N+](=O)[O-],10.6
12,Cc1cc(NC(=O)COc2coc(CN3CCN(c4ccccc4F)CC3)cc2=O)no1,4.64
13,Brc1ccc(-c2c(-c3ccsc3)sc3ccccc23)cn1,14.1
14,O=C(CN1CCN(CC(=O)Nc2ccc3c(c2)OCO3)CC1)Nc1ccc(F)cc1,-83.5
15,COc1ccc(S(=O)(=O)NCCN2CCOCC2)cc1[N+](=O)[O-],14.3
16,CCOc1ccc(C(C(=O)NC2CCCC2)N(C(=O)CNC(=O)c2ccco2)c2cccnc2)cc1 (centres unmarked),10.5
17,C[C@H](NC(=O)C1CC(=O)N(c2ccc3c(c2)OCCO3)C1)C(=O)NCc1ccco1 (some centres unmarked),21.6
18,N#CCc1ccc(NC(=O)Nc2cccc3ccccc23)cc1,11.7
19,CCN(CC)C(=O)c1ccc(-c2nnc(Nc3ccc(O)cc3)c3ccccc23)cc1,17.1
20,COc1ccccc1NC(=S)N1CCN(C(=O)c2ccco2)CC1,15.6
21,CC(C)(CNC(=O)C1CCCC1)CNC(=O)C1CCCC1,13
22,Cc1ccccc1C(=O)NC(CC(C)C)C(=O)OCC(=O)c1c(N)n(C)c(=O)n(C)c1=O (centres unmarked),11.7
